Like-named read-outs stand apart in the source and are kept apart here. At least one peptide structure holds a part that was inferred or is arguable (an end, a ring closure or a residue).
Experiments:
[1] = test system: estrogen independent MXT mouse mammary cancers; assay: Treatment of estrogen independent MXT mouse mammary cancers (KS-49); type: in vivo
Excerpt: In order to compare the tumor inhibitory activity of cytotoxic doxorubicin derivative, Q6 and its targeted cytotoxic peptide conjugate, Q6^14 gL as well as the well known antineoplastic agent, DOX and to determine the optimal way of administration and the nontoxic doses, LH-RH receptor positive MXT (3.2) ovex tumor pieces (1 mm^3) were implanted s. c. in female B6 D2 F1 mice. One day after transplantation the mice were randomly divided into groups of five animals and the treatment started. The compounds were dissolved in 0.1% trifluoroacetic acid (pH 2) and given intraperitoneally.

[2] = test system: MXT estrogen independent mouse mammary carcinoma cell line; assay: In vitro cytotoxic activity, crystal violet colorimetric assay on MXT; type: cell-based
Excerpt: (§1) MXT estrogen-independen mouse mammary carcinoma cell line was obtained from Dr. Gunter Berndhart, University of Regensburg, Germany. All the other cell lines used in the determination of the antiproliferative activity of the compounds of this invention were obtained from the American Type Culture Collection (ATCC).
(§2) For the evaluation of the activity of the analogs, a colorimetric cytotoxicity assay in microtitration plates was used based on quantification of biomass by staining cells with crystal violet, which correlates very well with determination of cell numbers. (Reile et al.; Anal. Biochem. 187, 262-267, 1990; Bernhardt G. et al, J. Cancer Res. Clin. Oncol. (1992), 118, 35-43; Spruss Th. et al, J. Cancer Res. Clin. Oncol 117, 435-443, 1991; Gillies, R. J., Anal. Biochem. 159, 109-113, 1986; Kueng, W. et al.; Anal. Biochem., 182 16-19, 1989.)
(§3) One to two days after seeding cells in 96-well plates the culture medium is exchanged with fresh medium containing the compounds to be tested and fresh medium only for the control cultures. After varying time of incubation, cells are fixed with glutaric dialdehyde and stored under […] at 4° C. until the end of the experiment. Cells are stained with crystal violet and bound stain is extracted with 70% aqueous EtOH. Optical density is measured with EIA Reader (Bio-Tek Instruments) or Biomek 1000 (Beckman) at 590 nm or 600 nm, respectively. Each data point represents the mean value of eight culture wells. T/C values are calculated as T/C=(T-C0)/(C-C0) where T=optical density of treated cultures, C=optical density of control (untreated) cultures, C0 =optical density of cultures at the start of incubation (t=0).

[3] = test system: MCF-7 human mammary carcinoma cell line; type: cell-based; settings: Table 18-1
Excerpt: as §1, §2, §3
Cells were incubated in IMEM media containing 5% Hl:DCC-FBS (heat inactivated dextran coated charcoal treated fetal bovine serum) on 96 well plates. Relative cell number in treated and control plates was determined by the crystal violet staining method and was expressed as T/C values where T/C=T-C0 /C-C0×100 [T=absorbance of treated cultures, C= absorbance of control cultures, C0 =absorbance of cultures at the start of incubation (t=0). The measured absorbance is proportionate to the cell number.]

[4] = test system: LH-responses; assay: Hormonal activity of LH-RH analogs (LH-responses rel. to LH-RH); type: cell-based; settings: relative to LH-RH = 1

SMILES: COc1cccc2c1C(=O)c1c(O)c3c(c(O)c1C2=O)C[C@@](O)(C(=O)COC(=O)CCCC(=O)NCCCC[C@@H](NC(=O)[C@H](Cc1ccc(O)cc1)NC(=O)[C@H](CO)NC(=O)[C@H](Cc1c[nH]c2ccccc12)NC(=O)[C@H](Cc1c[nH]cn1)NC(=O)[C@@H]1CCC(=O)N1)C(=O)N[C@@H](CC(C)C)C(=O)N[C@@H](CCCNC(=N)N)C(=O)N1CCC[C@H]1C(=O)NCC(N)=O)C[C@@H]3O[C@H]1C[C@H](N2C=CCC2)[C@H](O)[C@H](C)O1 [Q6^14 gL, [D-Lys^6 (2-pyrrolino-DOX^14 -O-glt)]LH-RH]
- Average survival ([1]; 0.2 nmol/inj. i.p., total 21 nmol (Groups 5 and 9)): 13.6 days
- Average survival ([1]; 0.5 nmol/inj. i.p., 5 inj./week, total 7.5 nmol (Groups 3 and 7)): 26.8 days
- Average survival ([1]; 1.25 nmol/inj. i.p., 2 inj./week, day 1, 2, 7 and 8 (Groups 2 and 6)): 30.8 days
- Average survival ([1]; 3.5 nmol/inj. i.p., 1 inj./week, 2 weeks, total 7 nmol (Group 10)): > 31 days
- Average survival ([1]; 5 nmol/inj. i.p., total 10 nmol (Group 12)): 13.4 days
- Average survival ([1]; 0.25 * nmol/inj. i.p. (dose raised day 9 to 12), total 9.5 nmol (Groups 4 and 8)): 18.4 days
- Average final tumor volume ([1]; Group 6, 1.25 nmol on day 1, 2, 7 and 8, at day 31): 863 mm^3
- Survival of animals without development of the tumor ([1]; total amount 7 nmol): 2 out of 5
- T/C value on MXT cell line ([2]; 3 × 1^-11 M (so in the source), 28 hr): 91
- T/C value on MXT cell line ([2]; 3 × 1^-11 M (so in the source), 69 hr): 59
- T/C value on MXT cell line ([2]; 3 × 10^-10 M, 28 hr): 64
- T/C value on MXT cell line ([2]; 3 × 10^-10 M, 69 hr): -11
- T/C value on MXT cell line ([2]; 10^-10 M, 28 hr): 78
- T/C value on MXT cell line ([2]; 10^-10 M, 69 hr): 15
- T/C Value on MCF-7 Cell Line ([3]; 3 × 10^-9 M, 70 hr): -24
- T/C Value on MCF-7 Cell Line ([3]; 3 × 10^-9 M, 120 hr): -14
- T/C Value on MCF-7 Cell Line ([3]; 10^-9 M, 70 hr): 28
- T/C Value on MCF-7 Cell Line ([3]; 10^-9 M, 120 hr): 16
- T/C Value on MCF-7 Cell Line ([3]; 10^-10 M (by column position), 70 hr): 74
- T/C Value on MCF-7 Cell Line ([3]; 10^-10 M (by column position), 120 hr): 60
- Hormonal activity (LH-responses rel. to LH-RH = 1) [4]: 10

Source: patent publication US6184374A, “Targeted cytotoxic anthracycline analogs” (priority 1998, dated 2001)
